Measured values: PubChem BioAssay AID463173 (ICCB-Longwood Screening Facility, Harvard Medical School, 2010)
Screen size: about 52,000 compounds; about 4,300 (8.3%) were called active. Cut-off read from the data, not from the text of the source: active = survival mostly below about 52% (no sharp cut-off); inactive = mostly above about 56%. The list shows a part of the results.

System: DeltatarO mutant
Experiment: growth inhibition of S. aureus wild type versus tarO mutant, primary screen, teichoic acid synthesis inhibitors, RN4220, OD600 (AID 463173)
Settings: OD600, 18 h, hits give low values, screened at 18.75 µg/mL (by protocol)

SMILES	survival
COc1ccc2c(CNCCc3ccco3)c(C(=O)O)n(Cc3ccc(C)cc3)c2c1	inactive: 73%
Cc1ccc(-n2ncc3c(NCCCN(C)C)ncnc32)cc1Cl	inactive: 95%
O=C(Cn1ncc2c3ccccc3n(Cc3ccccc3)c2c1=O)NCc1ccccn1	inactive: 82%
Cc1ccccc1CNC(=O)C1CCCCN1S(=O)(=O)c1ccc(F)cc1 (centres undefined)	inactive: 102%
O=[N+]([O-])c1ccc(S(=O)(=O)N2CCn3cccc3C2c2ccc(Br)cc2)cc1 (centres undefined)	inactive: 75%
COc1ccc(C(CNC(=O)c2oc3cc(Br)ccc3c2C)N2CCCCC2)cc1 (centres undefined)	inactive: 92%
COc1ccc(OC)c(-c2cc(C(=O)Nc3c(C)nn(Cc4ccc(C)cc4)c3C)no2)c1	active: 34%
Cc1ccc(NC(=O)c2c(C)oc3ccc(O)c(CN4CCN(Cc5ccccc5)CC4)c23)cc1	inactive: 69%
Cc1ccc(-n2nc(C(=O)N(C)c3ccc(C)c(C)c3)c3c4ccccc4n(C)c3c2=O)cc1	inactive: 83%
CCOc1ccc(CNC(=O)c2ccc(CSc3nc4ccncc4n3Cc3ccc(F)cc3)cc2)cc1	inactive: 69%
COc1cccc(NC(=O)c2oc3ccccc3c2NC(=O)c2ccccc2C)c1	active: 43%
O=C(CC1N=C2c3ccccc3N=C(SCc3cccc(F)c3)N2C1=O)NCc1cccs1 (centres undefined)	inactive: 91%
COc1cccc(-c2cc(C(=O)Nc3cnn(Cc4ccc(Cl)cc4Cl)c3)no2)c1	inactive: 101%
Cc1nn(-c2ccccc2)c2nc(C3CC3)cc(C(=O)Nc3cccc(F)c3)c12	inactive: 93%
CC(C)CCNc1nc2c(-c3ccccc3)nnn2c2ccccc12	inactive: 84%
COc1ccc(Cn2ccc3nc(C)c(C(=O)N4CCN(c5ccc(F)cc5)CC4)cc3c2=O)cc1	inactive: 75%
Cc1ccccc1NC(=O)c1c(NC(=O)c2ccccc2F)sc2c1CCC(C)C2 (centres undefined)	inactive: 63%
CCCCN1C(=O)c2[nH]nc(-c3ccccc3O)c2C1c1ccc(OCc2ccccc2)c(OC)c1 (centres undefined)	active: 35%
COc1ccccc1NC(=O)c1ncn(-c2ccccc2)n1	inactive: 115%
CCOC(=O)c1cccc(NC(=O)CCc2c(C)nn(-c3ccc(N4CCCCC4)nn3)c2C)c1	inactive: 99%
Cc1ccc(Sc2c(C)nn(C(C)(C)C)c2OC(=O)CC(C)C)cc1	active: -9%
Cc1c(C(=O)OC2CCC(C)CC2)[nH]c2c1C(=O)CC(c1ccc(F)cc1)C2 (centres undefined)	inactive: 93%
C(=N\c1nc2ccccc2n1Cc1ccccc1)/c1ccc2c(c1)OCO2	inactive: 70%
Cc1ccc(CNC(=O)CCNS(=O)(=O)c2ccc3c(c2)CCCC(=O)N3)cc1	inactive: 72%
